Measured values: the supplement of paper PMC6089552
Screen size: about 3,200 compounds; about 300 (9.4%) showed activity. The entries are a selection whose mix differs from that of the whole data set.

System: A673/TR/shEF
Experiment: cell viability (LOESS-normalised, relative to median of negative controls) (log2 ratio); higher = more viable cells (less compound effect), active = hit call of the paper (over 3 MAD below the median)
Details: treatment time: 72 h
Outline: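 Viability of A673/TR/shEF Ewing sarcoma cells was determined by CellTiter-Glo luminescence. The cells, at 1,500 per well in 384-well plates, were grown with or without doxycycline from 24 h before compound addition to switch on EWS-FLI1 shRNA knockdown, then exposed for three days to library compounds at two or more concentrations or to DMSO controls. Signals were LOESS-corrected plate by plate, normalised to the negative-control median and log2-transformed.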

[1] = 0.25 µM, library screen: screen1, EWS-FLI1 expression: high (no doxycycline)
[2] = 0.25 µM, library screen: screen1, EWS-FLI1 expression: low (doxycycline-induced shRNA knockdown)
[3] = 2.5 µM, library screen: screen1, EWS-FLI1 expression: high (no doxycycline)
[4] = 2.5 µM, library screen: screen1, EWS-FLI1 expression: low (doxycycline-induced shRNA knockdown)
[5] = 0.25 µM, library screen: screen2, EWS-FLI1 expression: high (no doxycycline)
[6] = 0.25 µM, library screen: screen2, EWS-FLI1 expression: low (doxycycline-induced shRNA knockdown)
[7] = 2.5 µM, library screen: screen2, EWS-FLI1 expression: high (no doxycycline)
[8] = 2.5 µM, library screen: screen2, EWS-FLI1 expression: low (doxycycline-induced shRNA knockdown)
[9] = 0.103 µM, library screen: screen3, EWS-FLI1 expression: high (no doxycycline)
[10] = 0.103 µM, library screen: screen3, EWS-FLI1 expression: low (doxycycline-induced shRNA knockdown)
[11] = 0.308 µM, library screen: screen3, EWS-FLI1 expression: high (no doxycycline)
[12] = 0.308 µM, library screen: screen3, EWS-FLI1 expression: low (doxycycline-induced shRNA knockdown)
[13] = 0.926 µM, library screen: screen3, EWS-FLI1 expression: high (no doxycycline)
[14] = 0.926 µM, library screen: screen3, EWS-FLI1 expression: low (doxycycline-induced shRNA knockdown)
[15] = 2.8 µM, library screen: screen3, EWS-FLI1 expression: high (no doxycycline)
[16] = 2.8 µM, library screen: screen3, EWS-FLI1 expression: low (doxycycline-induced shRNA knockdown)
[17] = 8.3 µM, library screen: screen3, EWS-FLI1 expression: high (no doxycycline)
[18] = 8.3 µM, library screen: screen3, EWS-FLI1 expression: low (doxycycline-induced shRNA knockdown)
[19] = 25 µM, library screen: screen3, EWS-FLI1 expression: high (no doxycycline)
[20] = 25 µM, library screen: screen3, EWS-FLI1 expression: low (doxycycline-induced shRNA knockdown)

Measured: cell viability (log2)

O=C(/C=C/c1ccccc1)c1ccc(O)cc1
inactive: [1] 0.0743 | [2] 0.0315 | [3] 0.0622 | [4] 0.0674

O=C(O)c1ccc2c(c1)OCO2
inactive: [1] 0.146 | [2] 0.102 | [3] 0.137 | [4] 0.0963

C[C@]12CC[C@H](O)C[C@H]1C[C@@H]1OC13C2[C@H](O)C(=O)[C@]1(C)[C@@H](C2=CC(=O)OC2)CC[C@]31O (stereo not given in full)
inactive: [1] 0.026 | [2] -0.0692 | [3] 0.111 | [4] -0.106

CC1=CC(=O)C2=C(C)CC[C@@H]3[C@H](OC(=O)[C@H]3C)[C@@H]12
inactive: [1] 0.0658 | [2] -0.00814 | [3] 0.0679 | [4] 0.106

CN(C)CCOC(=O)C(c1ccccc1)C1(O)CCCC1 (stereo not given)
inactive: [1] 0.0592 | [2] 0.0475 | [3] 0.185 | [4] 0.128

NC(=S)c1ccc[n+]([C@@H]2O[C@H](COP(=O)(O)OP(=O)(O)OC[C@H]3O[C@@H](n4cnc5c(N)ncnc54)[C@H](OP(=O)(O)O)[C@@H]3O)[C@@H](O)[C@H]2[O-])c1
inactive: [5] 0.209 | [6] 0.145 | [7] 0.254 | [8] 0.143

Nc1[nH]c(=O)ncc1F
inactive: [9] 0.0595 | [10] -0.0024 | [11] 0.0327 | [12] 0.0215 | [13] 0.0986 | [14] 0.0625 | [15] 0.0948 | [16] 0.0662 | [17] 0.0718 | [18] 0.0655 | [19] 0.0963 | [20] 0.073

OC[C@H]1NC[C@@H](O)[C@@H]1O
inactive: [5] 0.145 | [6] 0.102 | [7] 0.116 | [8] 0.0807

Cc1nc2c([nH]1)c(=O)n(C)c(=O)n2Cc1ccco1
inactive: [5] 0.194 | [6] 0.0162 | [7] 0.146 | [8] 0.012

CC(C)(C)NCC(O)COc1nsnc1N1CCOCC1 (stereo not given)
inactive: [5] 0.14 | [6] 0.0316 | [7] 0.202 | [8] 0.0877

NC[C@@H]1O[C@H](O[C@H]2[C@@H](O)[C@H](O[C@@H]3[C@@H](O)[C@H](N)C[C@H](N)[C@H]3O[C@H]3O[C@H](CN)[C@@H](O)[C@H](O)[C@H]3N)O[C@@H]2CO)[C@H](N)[C@@H](O)[C@@H]1O
inactive: [9] 0.11 | [10] 0.105 | [1] 0.123 | [2] 0.069 | [11] 0.0955 | [12] 0.0676 | [13] 0.0787 | [14] 0.105 | [3] 0.149 | [4] 0.0544 | [15] 0.113 | [16] 0.032 | [17] 0.0202 | [18] 0.092 | [19] 0.0145 | [20] 0.0474

CCC1(C)CC(=O)NC1=O (stereo not given)
inactive: [1] 0.116 | [2] -0.00845 | [5] 0.106 | [6] 0.0691 | [3] 0.149 | [4] 0.0817 | [7] 0.173 | [8] -0.00193

Cn1c(=O)c2c(nc(/C=C/c3cccc(Cl)c3)n2C)n(C)c1=O
inactive: [5] 0.124 | [6] 0.0223 | [7] 0.0343 | [8] 0.0759

O=S(=O)(c1cccc2cnccc12)N1CCCNCC1
active: [3] -0.187 | 25 µM, library screen: screen1, EWS-FLI1 expression: high (no doxycycline) -0.284

CCCCS(=N)(=O)CCC(N)C(=O)O (stereo not given)
inactive: [5] 0.206 | [6] 0.101 | [7] 0.0553 | [8] 0.063

COc1cccc(OC)c1OCCNCC1CSc2ccccc2O1 (stereo not given)
inactive: [5] 0.205 | [6] 0.147 | [7] -0.0369 | [8] 0.0792

CC(=O)O[C@@H]1CC2C(C)(C)[C@H](O)CC[C@]2(C)C2CC[C@@]3(C)[C@H](c4ccoc4)OC(=O)C4OC43[C@@]21C (stereo not given in full)
inactive: [1] 0.0586 | [2] 0.071 | [3] 0.0532 | [4] 0.116

CCC(C)(C)C(=O)O[C@H]1C[C@@H](C)C=C2C=C[C@H](C)[C@H](CC[C@@H]3C[C@@H](O)CC(=O)O3)[C@H]21
active: [19] -1.27 | [20] -1.32
inactive: [9] 0.14 | [10] 0.05 | [1] 0.0551 | [2] -0.0746 | [11] 0.153 | [12] 0.105 | [13] 0.0408 | [14] 0.0447 | [3] 0.0209 | [4] -0.321 | [15] 0.107 | [16] -0.0366 | [17] -0.0829 | [18] -0.13

CC(=O)Oc1ccc(C(c2ccc(OC(C)=O)cc2)c2ccccn2)cc1
inactive: [1] 0.106 | [2] 0.00689 | [3] 0.153 | [4] 0.0151

COc1cc2nc(N3CCN(C(=O)C4=C[C@H]5C=C[C@@H]4CC5)CC3)nc(N)c2cc1OC
inactive: [5] 0.165 | [6] 0.0668 | [7] 0.132 | [8] 0.0728

N=c1nc(N2CCCCC2)cc(N)n1O
inactive: [9] 0.069 | [10] 0.0737 | [1] 0.0723 | [2] -0.00153 | [5] 0.135 | [6] 0.117 | [11] -0.00781 | [12] 0.0103 | [13] 0.0329 | [14] 0.0505 | [3] 0.141 | [4] 0.0368 | [7] 0.0983 | [8] 0.105 | [15] -0.0316 | [16] 0.051 | [17] 0.033 | [18] 0.0706 | [19] -0.0136 | [20] 0.097

CC1(C)C[C@H](O)[C@]23CC[C@@H](O)[C@@](C)(CC[C@@H]12)C3
inactive: [1] 0.155 | [2] 0.054 | [3] 0.181 | [4] 0.0139

COc1cc(CNC(=O)CCCCCCC(C)C)ccc1O
inactive: [5] 0.0355 | [6] 0.0882 | [7] 0.0716 | [8] 0.0265

N#CC[C@H](C1CCCC1)n1cc(-c2ncnc3[nH]ccc23)cn1
inactive: [9] 0.0244 | [10] 0.0464 | [11] 0.0636 | [12] 0.0529 | [13] 0.0664 | [14] 0.0824 | [15] 0.077 | [16] 0.076 | [17] 0.111 | [18] 0.157 | [19] 0.0975 | [20] 0.133

C[N+](C)(C)CC(=O)[O-]
inactive: [1] 0.101 | [2] 0.159 | [5] 0.279 | [6] 0.119 | [3] 0.0973 | [4] 0.195 | [7] 0.084 | [8] 0.0352

COc1cc(O)c(C(=O)/C=C/c2ccccc2)c(OC)c1
inactive: [1] 0.0291 | [2] 0.0765 | [3] 0.107 | [4] 0.0766

CC(C)N1C(=O)C(=Cc2ccccc2F)SC1=S
inactive: [1] 0.0965 | [2] 0.0324 | [3] 0.0812 | [4] -0.039

NNC(=O)c1ccncc1.Nc1ccc(C(=O)O)c(O)c1
inactive: [1] 0.145 | [2] 0.169 | [3] 0.145 | [4] 0.0892

O=C(O)c1ccccc1Nc1cccc(OCc2ccc3ccccc3n2)c1
inactive: [5] 0.128 | [6] 0.0806 | [7] 0.186 | [8] 0.057

COc1cc(C(O)C(=O)O)ccc1O (stereo not given)
inactive: [5] 0.194 | [6] 0.0173 | [7] 0.157 | [8] 0.0587

COC1=C(OC)C(=O)C(C/C=C(\C)CC/C=C(\C)CC/C=C(\C)CC/C=C(\C)CC/C=C(\C)CC/C=C(\C)CC/C=C(\C)CC/C=C(\C)CC/C=C(\C)CCC=C(C)C)=C(C)C1=O
inactive: [1] 0.0717 | [2] 0.153 | [3] 0.193 | [4] 0.233

COc1ccc(CC(=O)c2ccc(O)cc2O)cc1
inactive: [1] 0.0221 | [2] -0.0106 | [3] 0.12 | [4] 0.0534

Cc1c(OCC(F)(F)F)ccnc1C[S+]([O-])c1nc2ccccc2[nH]1 (stereo not given)
active: [19] -0.241
inactive: [9] 0.0918 | [10] 0.101 | [1] 0.136 | [2] 0.0633 | [5] 0.166 | [6] 0.0843 | [11] 0.0516 | [12] 0.0264 | [13] 0.0709 | [14] 0.0884 | [3] 0.133 | [4] 0.126 | [7] 0.122 | [8] 0.0984 | [15] 0.0259 | [16] 0.0107 | [17] -0.0254 | [18] 0.0817 | [20] 0.0393

[N-]=[N+]=Nc1ccc(C(=O)CSC[C@H](NC(=O)CC[C@H](N)C(=O)O)C(=O)NCC(=O)O)cc1
inactive: [5] 0.136 | [6] 0.104 | [7] 0.109 | [8] 0.172

Cn1c(=O)c2c(ncn2C)n(C)c1=O
inactive: [1] 0.139 | [2] 0.11 | [5] 0.294 | [6] 0.141 | [3] 0.191 | [4] 0.106 | [7] 0.162 | [8] 0.113

CCCCCCCC/C=C\CCCCCCCC(=O)O
inactive: [5] 0.0706 | [6] 0.117 | [7] 0.0994 | [8] 0.08

CCC(C)C(N)C1=NC(C(=O)N[C@@H](CC(C)C)C(=O)N[C@H](CCC(=O)O)C(=O)N[C@H](C(=O)N[C@H]2CCCCNC(=O)[C@H](CC(N)=O)NC(=O)[C@@H](CC(=O)O)NC(=O)[C@H](Cc3cnc[nH]3)NC(=O)[C@@H](Cc3ccccc3)NC(=O)[C@H]([C@@H](C)CC)NC(=O)[C@@H](CCCN)NC2=O)[C@@H](C)CC)CS1 (stereo not given in full)
inactive: [1] 0.0992 | [2] -0.0505 | [3] 0.131 | [4] 0.0875
